Measurements: PubChem BioAssay AID1030 (National Center for Advancing Translational Sciences (NCATS), 2008)
Where “and” joins values, the source holds several entries; their conditions need not be identical. Equal values may be shown once. The campaign covered roughly 220,000 compounds. About 16,000 (7.3%) were called active. The inconclusive results got no clear call from the source; some entries with a clear call stand among them for comparison. The call rests on the fitted dose curve; in most records, active means well fitted inhibition curve with a large enough effect (not every such curve was filed as active); inconclusive means small, poorly fitted or top-dose-only effect, or another doubt; inactive means no such curve, though single readings can be large or run the other way. Where the call is inconclusive, the potency comes from a doubtful curve fit.

The molecules below were run against Aldehyde dehydrogenase 1A1 (Homo sapiens) (UniProt P00352) (assay: qHTS Assay for Inhibitors of Aldehyde Dehydrogenase 1 (ALDH1A1)). Settings: Purified ALDH1A1, NADH fluorescence, propionaldehyde substrate; series mostly up to 75.3 µM; activity, negative = inhibition: at the top concentration.
Potency means the concentration at half of the fitted maximal effect; tags describe the fitted curve by direction and shape.
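Wherever activity, negative = inhibition is given: plate controls were no enzyme wells and a reference inhibitor.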

UniProt P00352, sequence (P00352 whole entry, looked up): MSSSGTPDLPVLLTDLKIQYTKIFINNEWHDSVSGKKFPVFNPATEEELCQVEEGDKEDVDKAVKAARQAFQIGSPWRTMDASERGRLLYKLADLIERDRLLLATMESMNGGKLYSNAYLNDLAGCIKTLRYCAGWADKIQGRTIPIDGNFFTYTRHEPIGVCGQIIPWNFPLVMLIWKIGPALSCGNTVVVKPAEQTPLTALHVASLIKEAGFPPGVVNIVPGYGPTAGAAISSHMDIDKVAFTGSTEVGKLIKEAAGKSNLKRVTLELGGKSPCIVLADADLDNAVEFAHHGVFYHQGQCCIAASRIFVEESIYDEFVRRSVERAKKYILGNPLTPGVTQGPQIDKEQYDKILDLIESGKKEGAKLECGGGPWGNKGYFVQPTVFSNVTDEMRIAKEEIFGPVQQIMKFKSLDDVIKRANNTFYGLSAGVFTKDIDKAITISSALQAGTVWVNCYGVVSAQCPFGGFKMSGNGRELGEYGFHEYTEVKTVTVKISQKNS

Which Potency does the source give for `Nc1ccc(Cl)c(-c2nc3ncccc3o2)c1` here?
Its Potency is inconclusive: 35.5 µM [inhibitor, single point].

Which Potency does the source give for `O=C(CSc1nnnn1-c1ccc(F)cc1)NC1CCCCC1` here?
Its Potency is inconclusive: 14.1 µM [inhibitor, partial curve].

With `CCOC(=O)C1CCC(CN(Cc2ccccc2C)S(=O)(=O)c2ccc([N+](=O)[O-])cc2)CC1` (configuration not stated) as the molecule, how does the “activity, negative = inhibition” value read?
Its value is inactive: -1.83%.

How did the Potency turn out when `C=C(C)C1COc2cc3oc(=O)ccc3cc2O1` (configuration not stated) was run?
The Potency was inconclusive: 31.6 µM [inhibitor, partial curve].

Which Potency does the source give for `Cc1ccnc(SCC(=O)c2ccc(Br)cc2)c1C#N` here?
Its Potency is inconclusive: 39.8 µM [inhibitor, single point].

How did the Potency turn out when `COc1ccc(S(=O)(=O)N(Cc2nc3ccccc3c(=O)[nH]2)C2CCCC2)cc1` was run?
The Potency was inconclusive: 20 µM [inhibitor, partial curve].

With `COc1cc(N/C(N)=N/c2nc(C)cc(C)n2)c(OC)cc1Cl` as the molecule, how does the “activity, negative = inhibition” value read?
The value was inactive: 12.1%.

For `O=C(N/N=C/c1cc(Cl)cc([N+](=O)[O-])c1O)NC12CC3CC(CC(C3)C1)C2`, which Potency is on record?
The Potency was inconclusive: 39.8 µM [inhibitor, single point].

How did the Potency turn out when `O=C1c2ccccc2C(=O)N1CCCCN(C(=O)c1cc([N+](=O)[O-])cc([N+](=O)[O-])c1)c1ccc(Cl)cc1` was run?
The Potency was active: 1.41 µM.

With `CC(NC(=O)c1ccccc1NC(=O)c1ccco1)C(=O)O` (configuration not stated) as the molecule, how does the Potency read?
The Potency was inconclusive: 39.8 µM [inhibitor, single point].

How did the “activity, negative = inhibition” value turn out when `CCC1CSC(Nc2ccc(C(=O)/C=C/c3ccc(Oc4ccccc4)cc3)cc2)=N1` (configuration not stated) was run?
The value was inactive: -16%.

For `Cc1ccc(NC(=S)N=Nc2c(O)n(C)c3ccc(S(=O)(=O)N4CCOCC4)cc23)cc1C`, which “activity, negative = inhibition” value is on record?
The value was inactive: -10.6%.

Which “activity, negative = inhibition” value does the source give for `COc1ccc(CNC(=O)CC2Sc3ccccc3NC2=O)cc1` (configuration not stated) here?
The value was inactive: 5.51%.

With `Nc1nc(N2CCOCC2)nc2ccccc12` as the molecule, how does the Potency read?
The Potency was inconclusive: 35.5 µM [inhibitor, single point].

How did the Potency turn out when `COc1ccc(OC)c2[nH]c(=O)c(CCNC(=O)c3ccc(S(=O)(=O)N(C)C)cc3)cc12` was run?
The Potency was inconclusive: 10 µM [inhibitor, partial curve, poor fit].

With `O=C1c2ccccc2C(Nc2cccnc2)N1Cc1ccc2c(c1)OCO2` (configuration not stated) as the molecule, how does the “activity, negative = inhibition” value read?
The value was inactive: -2.13%.

With `NC(Cc1cc(I)c(Oc2ccc(O)c(I)c2)c(I)c1)C(=O)O` (configuration not stated) as the molecule, how does the “activity, negative = inhibition” value read?
The value was inactive: -13.7%.

With `O=C(CCS(=O)(=O)Cc1ccccc1)N1CCN(c2ccc([N+](=O)[O-])cc2)CC1` as the molecule, how does the Potency read?
The Potency was active: 25.1 µM.

For `CC(=O)c1c(C)nc2nonc2c1N`, which Potency is on record?
Its Potency is inconclusive: 44.7 µM [inhibitor, single point].

`COc1cc2c(cc1OC)C(c1cccc([N+](=O)[O-])c1)N(C(=O)c1ccccc1C(=O)O)CC2` (configuration not stated) was tested. Which “activity, negative = inhibition” value did it give?
Its value is inactive: 5.94%.

How did the “activity, negative = inhibition” value turn out when `CCN(CC)C(=O)CS(=O)(=O)CC(=O)Nc1cc(OCCOC)c(Cl)cc1Cl` was run?
The value was inactive: -0.585%.

`NNC(=O)CN1CCN(c2ncc(C(F)(F)F)cc2Cl)CC1` was tested. Which Potency did it give?
Its Potency is inconclusive: 10 µM [inhibitor, partial curve].

For `CCOC(=O)c1c(N2C(=O)Nc3ccccc3N2O)sc2c1CCCC2`, which “activity, negative = inhibition” value is on record?
Its value is inactive: 4.97%.

`CC1=CC2=NC(=O)/C(=C/c3coc4ccc(Cl)cc4c3=O)C(=N)N2O1` was tested. Which Potency did it give?
The Potency was inconclusive: 28.2 µM [inhibitor, partial curve].

With `COc1ccc(S(=O)(=O)Nc2ccc(S(=O)(=O)N3CCCCC3)cc2)cc1` as the molecule, how does the Potency read?
The Potency was active: 0.355 µM.

`CC1CCCC(C)N1CC(O)COc1ccc(Cl)cc1` (configuration not stated) was tested. Which Potency did it give?
Its Potency is inconclusive: 39.8 µM [inhibitor, single point].

For `Cc1onc(-c2ccccc2)c1C(=O)Nc1nnc(COc2ccc(Cl)cc2)s1`, which Potency is on record?
Its Potency is active: 1.12 µM.

How did the Potency turn out when `Oc1ccc(-c2nc(-c3ccc(F)cc3)c(-c3ccncc3)[nH]2)cc1` was run?
Its Potency is inconclusive: 17.8 µM [inhibitor, partial curve] and inconclusive: 39.8 µM [inhibitor, single point] and inconclusive: 35.5 µM [inhibitor, single point].

Which Potency does the source give for `O=C(NCC1CCCCC1)c1cc([N+](=O)[O-])ccc1N1CCOCC1` here?
The Potency was inconclusive: 22.4 µM [inhibitor, partial curve, poor fit].

How did the “activity, negative = inhibition” value turn out when `O=C(CSc1ccsc1[N+](=O)[O-])N1CCN(c2ccc(Cl)cc2)CC1` was run?
The value was inactive: -5.04%.

For `CCn1nnnc1SCC(=O)N1CCCc2ccccc21`, which Potency is on record?
Its Potency is active: 3.55 µM.

Which Potency does the source give for `Cc1c(Cl)cccc1NC(=O)Nc1ccc(C(=O)N2CCCC2)cc1` here?
The Potency was active: 20 µM.

Which Potency does the source give for `Cc1ccc(SCc2cc(=O)[nH]c(N3CCN(Cc4ccccc4)CC3)n2)cc1` here?
Its Potency is inconclusive: 4.47 µM [inhibitor, partial curve].

`CC(=O)c1cccc(NS(=O)(=O)c2cccc(C(=O)O)c2)c1` was tested. Which “activity, negative = inhibition” value did it give?
The value was inactive: -1.51%.

For `N/C(=N\OC(=O)c1cccc([N+](=O)[O-])c1)c1ccccn1`, which Potency is on record?
Its Potency is inconclusive: 17.8 µM [inhibitor, partial curve].

`O=C(CN1CCN(C(=O)c2cccs2)CC1)Nc1ccc(Br)cc1` was tested. Which Potency did it give?
Its Potency is inconclusive: 39.8 µM [inhibitor, single point].

For `Cc1ccc(/C=N/NC(=O)CSc2nc3ccccc3c(=O)n2-c2ccccc2C)s1`, which Potency is on record?
The Potency was inconclusive: 39.8 µM [inhibitor, single point].

`CCc1ccc2c(c1)/C(=N/N(C)C(=S)NC)C(=O)N2` was tested. Which Potency did it give?
The Potency was inconclusive: 25.1 µM [inhibitor, single point].

`CNC(=S)NNC(=O)c1ccc2c(c1)OCO2` was tested. Which “activity, negative = inhibition” value did it give?
The value was inactive: -5.85%.

Which “activity, negative = inhibition” value does the source give for `CC1CCc2c(nc3sc4c(c3c2N)CCCC4)C1` (configuration not stated) here?
Its value is inactive: -5.34%.

For `CC(C)Cc1nnc(NC(=O)CN2C(=O)c3ccccc3C2=O)s1`, which Potency is on record?
The Potency was inconclusive: 39.8 µM [inhibitor, single point].

How did the Potency turn out when `COc1ccc2ccc3c(c2c1)N=CC1(O3)N(C)c2ccccc2C1(C)C` (configuration not stated) was run?
Its Potency is active: 12.6 µM.

`CC(C)c1ccc(NC(=O)CSc2nc3c(c(=O)[nH]2)CCC3)cc1` was tested. Which Potency did it give?
The Potency was inconclusive: 39.8 µM [inhibitor, single point].

Which Potency does the source give for `O=C(NC1CCCc2ccccc21)C1CCN(C(=O)c2sccc2-n2cccc2)CC1` (configuration not stated) here?
Its Potency is active: 1 µM.

How did the Potency turn out when `COc1ccc(-c2cc3nc(C)c(CCC(=O)NCc4ccco4)c(C)n3n2)c(OC)c1` was run?
The Potency was inconclusive: 31.6 µM [inhibitor, single point].

`Cn1c(SCC(=O)C(C)(C)C)nnc1-c1ccc(F)cc1` was tested. Which Potency did it give?
The Potency was inconclusive: 39.8 µM [inhibitor, single point].

`CS(=O)(=O)N1CCc2cc(-c3csc(NC(=O)Cc4cccs4)n3)ccc21` was tested. Which Potency did it give?
The Potency was active: 12.6 µM.

How did the Potency turn out when `CCOC(=O)COc1c(-c2ccc(OC)cc2)oc2ccccc2c1=O` was run?
Its Potency is inconclusive: 28.2 µM [inhibitor, partial curve].

How did the “activity, negative = inhibition” value turn out when `COC(=O)Nc1ccc2ncn(C)c(=O)c2c1` was run?
The value was inactive: 5.7%.

How did the Potency turn out when `COc1ccc(C(=O)CSc2nnc(COc3ccccc3)n2Cc2ccco2)cc1` was run?
Its Potency is active: 8.91 µM.

With `CC(O)CNc1nc2sc3c(c2c(=O)n1Cc1ccco1)CCCCC3` (configuration not stated) as the molecule, how does the Potency read?
The Potency was inconclusive: 44.7 µM [inhibitor, single point].

For `COC(=O)c1cccc(NC(=S)Nc2cccc(Cl)c2Cl)c1`, which Potency is on record?
The Potency was inconclusive: 35.5 µM [inhibitor, single point].

`CCCc1ccc(-c2ccc(F)c(N)c2)nc1` was tested. Which “activity, negative = inhibition” value did it give?
Its value is inactive: -2.54%.

How did the Potency turn out when `Cc1ccc(CNC(=O)CSc2ccc(-c3ccco3)nn2)cc1` was run?
Its Potency is active: 14.1 µM.

Which Potency does the source give for `O=C1OC(c2ccccc2)=C/C1=C/N1CCCCC1` here?
Its Potency is active: 10 µM.

With `Cc1cc(N/N=C/c2ccc(O)cc2O)nc(-c2ccccc2O)n1` as the molecule, how does the “activity, negative = inhibition” value read?
The value was inactive: 9.86%.

How did the Potency turn out when `COc1ccc(N2CCN(C(=O)CSc3nnc4c(C)cc5cc(C)ccc5n34)CC2)cc1` was run?
The Potency was inconclusive: 22.4 µM [inhibitor, single point].

Which “activity, negative = inhibition” value does the source give for `Cc1cc(/C=N/O)c(C)n1-c1ccccc1` here?
The value was inactive: -6.86%.

`CCC1(C)NC(=O)N(/N=C/c2cc(OC)c(O)c(OC)c2)C1=O` (configuration not stated) was tested. Which Potency did it give?
The Potency was active: 10 µM.

How did the “activity, negative = inhibition” value turn out when `CCCC(=O)Nc1nnc(CCOC)s1` was run?
The value was inactive: -3.83%.

How did the Potency turn out when `Cc1ccc(CCNS(=O)(=O)c2ccc(C)cc2)cc1` was run?
Its Potency is inconclusive: 39.8 µM [inhibitor, single point].

For `Cc1cccc(-n2cnc3cc(C(=O)N4CCCCC4)ccc32)c1`, which Potency is on record?
Its Potency is active: 3.98 µM.

For `O=C(CCCCCn1c(=S)[nH]c2cc3c(cc2c1=O)OCO3)N1CCN(C2CCCCC2)CC1`, which “activity, negative = inhibition” value is on record?
The value was inactive: -3.52%.

For `COc1ccc(OC)c(NC(=O)C2C3CC4OC(=O)C2C4C3)c1` (configuration not stated), which “activity, negative = inhibition” value is on record?
Its value is inactive: -4.53%.

Which Potency does the source give for `O=C1c2ccccc2C(=O)N1CCSC(=S)N1CCOCC1` here?
Its Potency is inconclusive: 7.08 µM [inhibitor, partial curve].

Which Potency does the source give for `CCC/C=N/NC(=O)C1COc2ccccc2O1` (configuration not stated) here?
The Potency was inconclusive: 12.6 µM [inhibitor, partial curve].

How did the “activity, negative = inhibition” value turn out when `COc1cc(OC)cc(-c2nnc(SCC(=O)N(C(C)C)C(C)C)o2)c1` was run?
The value was inactive: 10.8%.

How did the Potency turn out when `COc1ccc(-c2cc3ccccc3n2CC(O)Cn2nc(C)cc2C)cc1` (configuration not stated) was run?
Its Potency is inconclusive: 35.5 µM [inhibitor, single point].

With `CC(C)OC(=O)CC(=O)c1sc2nc3c(cc2c1N)CN(C)CC3` as the molecule, how does the Potency read?
Its Potency is inconclusive: 39.8 µM [inhibitor, single point].

For `O=C(/C=C/c1c(F)cccc1Cl)c1ccc(F)cc1`, which “activity, negative = inhibition” value is on record?
Its value is inactive: -44.4%.

Which “activity, negative = inhibition” value does the source give for `COc1ccccc1NC(=O)CCC(=O)OCc1cccc([N+](=O)[O-])c1` here?
The value was inactive: 19.6%.

For `COc1cc(NC(=O)c2ccc(COc3ccccc3Br)o2)cc(OC)c1OC`, which Potency is on record?
Its Potency is inconclusive: 35.5 µM [inhibitor, single point].

How did the “activity, negative = inhibition” value turn out when `CC(NCc1cccs1)c1ccccc1` (configuration not stated) was run?
The value was inactive: -9.16%.

Which Potency does the source give for `COc1cccc(CC(NC(C)=O)C(=O)NC2CCN(c3nnnn3-c3ccccc3)CC2)c1` (configuration not stated) here?
The Potency was active: 14.1 µM.

Which Potency does the source give for `C=CCn1c(-c2ccc(OC)c(OC)c2)cs/c1=N\c1ccccn1` here?
The Potency was inconclusive: 31.6 µM [inhibitor, single point].

Which “activity, negative = inhibition” value does the source give for `COc1cc(C(=O)Nc2ccc(NC(C)=O)cc2)ccc1OCc1ccccc1` here?
Its value is inactive: -0.0429%.

With `Cn1c(N/N=C/c2ccccc2)nc2sc3c(c2c1=O)CCC3` as the molecule, how does the “activity, negative = inhibition” value read?
The value was inactive: -13.5%.
